# Source: the RNAGym collection of RNA variant scans (doi:10.7554/elife.90254)
# Read counts are not given, so values of variants with three or more changes are uncertain.
# B1: OR4K15 (parent)
# chain: GUUAACGGUCAUAGGCCAUGGAAACUAGGAGCACCAUUUCGCUGCCAGUGAAGAAAUGAACAAAGAAAAUCUGGGCCAGGCAGGCAUCAAAAGAAAUAGUCUUGCGCUCAACCAGAAAGUCUGUAAUCAUUUUAAGGGUA
# Variants of: B1
# Assay: self-cleavage, relative activity (ratio to wild type); higher = more cleavage; in vitro, sequencing; the parent is a self-cleaving ribozyme
row,Variant,self-cleavage
1,U19C A23G C42A A89G,0.21
2,U2C A5U A18G A54G U102G G106A,0.07
3,U9A U19C A52G A56G,1.42
4,G14C C35U A54U A140G,1.01
5,A18G A22G U43A U102C,0.91
6,A18C A51G A54U A86G U139C,1.44
7,U2C A51G U103C U132C,0.02
8,U38C A60G A78G,0.26
9,C17U U43A A69G A117G,1.39
10,A33G A56G A66U,0.57
11,U26C A52U A66U U72A U102A A118G,0.02
12,U49A U87C A116G,0.67
13,A5G A86G A89U U139A,1.07
14,U2A U37C G99U U100C U131C,0
15,A59G A62G A68G A116G,0.29
16,A13G U38A A47G U100G U130C,1.54
17,A11G U49C A129G,0.9
18,A11G A56G U103C A125G,0.21
19,A62G A95G U103A U122A,1.05
20,A11G U19A A78G U122C,0.22
21,U43C A92G A98G,0.34
22,C25U U57C A67G U72G A98U,0.34
23,U9A A23G A60U G104A,0.09
24,A78U A94G U108C A111G A118G,0.01

row,Variant,self-cleavage
1,A13G U38C U43C A89G U122C,0.74
2,A56G A78G U132C,0.21
3,A11G A30G U87C,1.53
4,A51G A52G U70C A90U U133C G138A U139C,0.56
5,C45U A47G G48A A116G,1.01
6,G1A U57C A86U C105U U127A,0.28
7,U2C U19C A86G U103A,0
8,A11C U39A A51U A64G U72A A129G,0.15
9,C35U A52U A68U,1.62
10,U38C C42U A54G,1.16
11,A52G A59G A67G U70C A95G A135G,0.46
12,U37C A54G A55G A68G A69G A90G A118G,0.26
13,U3A A33G G48A,0.88
14,U49A A52G A78U,0.23
15,U9G A69G A94G A98G A125U U139C,0.76
16,A4G A89U A95G A134G A135G,1.89
17,A5G U19A A63G,0.89
18,G31C A59G A91G,1.14
19,C10U A64G U70C,0.29
20,A24G A54G A59G A86G,1.15
21,A60G A110G A118U,0.06
22,A13G A54G A111G,0.16
23,A54G A68G A78U A126G U132C,0.25
24,A13U A18U A27G A66U,1.08

row,Variant,self-cleavage
1,U19C U37C U57C U131C,1.75
2,A33U A96G A126G,2.39
3,A52G A98G G115U G136A,0.04
4,A33G A60G A116G,0.34
5,A11U C40A A78G U127A,0.17
6,U12G A52G A59G,1.05
7,A78G C105U A118G,0.03
8,A47C A52G A64G U120C,1.25
9,U3C U38C A59G G74A C81U,0.14
10,A30G C45A U108A,0.02
11,U37C A59G A60U,1.35
12,A52G A68G A89G,1.69
13,U9C A78G U132C,0.21
14,A18G A23G U49C,1.25
15,U9C U39C A117G A140G,2.38
16,U12C A68G A92G A94G A117G,1.28
17,A27G A95G A116U,0.54
18,A5G G28A A68G U102C,2.31
19,A5G A60G A82U U102C C107U,0.02
20,A18G G50A A117U C121U,0.86
21,A27G A55G A67G,1.15
22,A69C A111U C112U U122C,0.01
23,A24G A62G A86G A92G U100C,0.67
24,A5G A23G A78U A95G,1.37

row,Variant,self-cleavage
1,A22G A78G U103C U108C U133A,0.04
2,A59G A62G A126G U127C U132C,0.75
3,A4G A66G U131C,0.95
4,U9C G14U G21U U120A,0.83
5,A51G A78U U132C,0.4
6,U49A A59G A98G U103C,0.05
7,A52G G74A U103C,0.2
8,U39G A47G A67G U97C,0.63
9,U26G A47G U49A A86G A111C,0.03
10,A11G U100C A135G U139A,1.22
11,A18U U38C G58C A69G A91G,0.61
12,A13G U19C U39C A62U U108C,0.06
13,U43C A66G A86G U100C A117G,2.58
14,A51G A54G U103C U139C,1.06
15,U19C A30U U39A,1.02
16,U19A A59U U108C,0.03
17,A55U U72A A94G,0.24
18,A69G A82G A89G,0.45
19,G29A A64G A78U A111G,0.03
20,G14U C40A C105U,0.14
21,A11G A13G U43C,1.02
22,U70C A92G U130C,0.35
23,A5G U43C A95G G104A,0.12
24,A4G A18U U49C A52G,1.16

row,Variant,self-cleavage
1,U57G U108C C113A A116G,0
2,A11G A22U A89U,1.08
3,A11G A110G A117G,0.18
4,A5G A27G U57C A118G,0.69
5,G8A U37C A66G U87C,0.42
6,A24G A78U A96G C107U,0.01
7,A23G A67U A94G,1.34
8,A52G A54U A60G A95G A126G,0.27
9,U103C A118G U132A A134G,0.19
10,U19A A110G A126G,0.12
11,A67G A114G A116G A117U,0.07
12,U57C A59G A117G,1.2
13,A30U G58A A69G U100C A116U,0.73
14,U37C G41A A59G A111G,0.02
15,A30G U72A C76U,0.41
16,U2C A69G A94G U120G,0.83
17,A59G A66U A116U U122C,0.04
18,U2C A64G A82G,0.86
19,A11U U43C A60U U103C,0.83
20,A52G A55G U70C,0.26
21,A13U C17U U19C A22G A54G,1.8
22,G50C A94G A110G,0
23,A11G A51G A59G A135U,0.69
24,C6U U9C U102C,1.02

row,Variant,self-cleavage
1,C85A A114G A126G C128A,0.19
2,A23G A54G A66G U87C U102C A111C,0
3,A24G U37C U43A A47G U72A A95C,0.19
4,A23G U122C U130C,1.13
5,U19C U57A A60G,1.15
6,A52G A82U U87C U130C,0.07
7,U39C A82G U127A A129G G138A,0.31
8,C40A A64G U103C,0.54
9,A47U A59G A69G,0.47
10,U19C A66G A69U U72C A98G A110G,0.02
11,A5G U19A C45U,0.74
12,A24G A30G G74U U108C,0.04
13,U19C A54G A62G U70C,0.42
14,A24G A30G A64G A91G,0.17
15,A96G U122C U130C U131C,0.74
16,A55C A60G A114C,0
17,A5G A11G A68G,0.68
18,A92U A118U U122C,1.03
19,C10U U38C U72C,0.09
20,U3C C34U A51G A60G A116G,0.61
21,C16U A18G A59G G138U,1.11
22,A52G A55G A118G,1.18
23,A30G U38C A54G,1.46
24,U9C G44A G73U,0.21

row,Variant,self-cleavage
1,A23G U57C A90G C105U U108C U127A,0.02
2,C61U A67G A140U,1.8
3,A47G A60G U100C,1.51
4,A110G A117G U131C,0.11
5,G44A A55G A60U A64G,1.08
6,U12C A68C U72G U100A U122C,0.09
7,U2A A36G U43C,0.87
8,A11G A23G C35A A52G A63G A64G,0.66
9,A30G U49A A59G A67G A117G,1.52
10,U70C U72C G84U,0.41
11,A22G G31U C42U U102C,2.66
12,U19C A64G A66U,1.45
13,U3C U9A A64G,0.94
14,G79A A110G A118U,0
15,A13G A52G A140G,1.11
16,A47G A62G A134G,0.34
17,A56G A78G A86G A91G A92G A110G A117G,0.06
18,A33G U43A A52G A59U A60G U120C C121A,2.99
19,A64G A82G A94G A110G,0.04
20,A52G U70C U130C,0.41
21,G7A A27G A47G G74A A117G U130C,0.07
22,A60G U108C A140G,0.01
23,C34U A55G A60G A67U A129G,1.53
